Assay results: publication PMC10726135
This is one part of the list. At the low end of the ranking the order means little. The protein was read in a cell extract, so binding may be indirect.

Each sequence was assayed against T1, HNF4alpha8 (COS-7 nuclear extract) (UniProt P41235-5) (assay: protein-binding microarray). Settings: COS-7 nuclear extract on double-stranded Agilent 4x180k PBM; binding buffer, salt, pH and temperature not given; high values mean tight binding; double strand, one strand shown; sequences stand for … in …GCCTAGGGAGATTAGAGTATCGGTCGA.
T1 sequence: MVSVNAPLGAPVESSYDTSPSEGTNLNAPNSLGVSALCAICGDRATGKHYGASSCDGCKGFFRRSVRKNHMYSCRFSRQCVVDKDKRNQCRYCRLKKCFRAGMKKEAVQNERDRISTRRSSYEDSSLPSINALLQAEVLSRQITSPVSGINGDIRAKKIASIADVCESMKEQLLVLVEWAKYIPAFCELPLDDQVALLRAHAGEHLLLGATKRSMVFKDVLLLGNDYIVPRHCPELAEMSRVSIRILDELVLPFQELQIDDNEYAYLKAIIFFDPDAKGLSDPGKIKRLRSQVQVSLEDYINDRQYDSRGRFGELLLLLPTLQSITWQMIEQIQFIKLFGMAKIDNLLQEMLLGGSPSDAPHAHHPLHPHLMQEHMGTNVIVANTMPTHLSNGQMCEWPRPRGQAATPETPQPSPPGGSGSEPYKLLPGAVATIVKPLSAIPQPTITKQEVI

Sequence | binding signal (log2 normalized intensity)
CGGAAGTTGCAGTGAGCTAAGATTGGACTC | 5.36
TGGGACTCATTTATGGAGGAATTTGGACTT | 5.36
GTGCCTCTTTGGTGAATTTTATGTCTTCTT | 1.36
TGTCTCTGTAAATAAATGTCATTTAAGACG | 0.537
CTGCTGGACACCGAGGTCCTGGGGCGATGC | -1.24
TATTGAACCACCAGATAGAGCTTTTGAGGG | -1.28
ACTAAGTGCTTAGTATGTGCTAGGCATTTT | 0.0923
TTGAGCTGCTAAACCAACACCAGCAACCGC | -1.21
CTCTGCCTCGGCCACATTCCCCGACTCCTG | 1.65
ACAGATGGCCTCACTCGGTGTGAGTGGTCC | 0.966
ACCAGGTAGGGCCCCCAGCCAGGCCCCAGG | 1.32
CTCAAGGAATCCTCCTAAGTAGCCAAGATT | -1.4
ATGCCCAAATGAATAATCCCCTCCTGGACT | 3.33
AGTTCCGAGTTCCCTCGATTATTTCAGCCA | -1.28
ACCTCGATCCCTGGCTAAGGTCCTGTTTGT | 1.69
GGATTTCTTGGCTTCTCTTGGACCTCAATG | 2.36
GGGCCAGCTGTACAAATAAAGGATGAAGGA | -0.943
AGGGTACAAATTCCAGAGAGGGGCCTCCAT | 1.89
TAGACATAGGTTATAAACTTGTTTGGGATT | 0.308
ACTTGTTATCACCTGCTGGAATGTTTCAAG | 1.48
CATATTCCTTAGATAAAAAGCTTTTCTTCC | -0.947
TCTTTACACATCTGTTAGGAATGTCATGCA | 0.608
GAGTTCAGTTATCATTTCTACAGGGTCAAG | 3.09
GGGGGTGGAGAAGGAAGGGGAAGATGATAG | -1.3
TCCGGCCTGAGGCAGGATCAGGGCCCCTTC | -1.22

Sequence | binding signal (log2 normalized intensity)
GACCTCGGCGGAGCCTCCGGCCTGAGGCAG | -1.34
AAAGAGAAAGTAAGTGCACAGCCAGAACTG | -1.35
GTCCGACTGCACACCGTCCAGAGGCTCCAA | -1.4
TGAAAGTCCACTTGTCTGGCCTTCCTGGCC | 1.32
CCTGGGCTGTATGTTCTAACCATAGGAGGC | 0.0159
AATGTGCCCAGATAAGAACTGCAAGGCTAG | -1.32
TCTTTCGCTGTAGAAAGTGGTTTCAAGGTG | 1.24
GTGCTGGGGACAAAAGCTGAGTCCCTGCTT | -1.05
GTTCAAACTTTATTTGATGATGAAGCAACA | 0.662
CGCCCTTGGAATATCCTGCCTAACAGGAGT | -1.35
TGGTTTACTTATGTCTCCAGAAACCAACCT | 0.592
CATCAAAGCATTTGGAGATTGCCACCTTGG | -1.23
TTATCTGATAAGTCCATACCTAGTCTTATC | 0.551
GTTATCACAGGCTTGGAATGTTTCTGTATC | 0.74
TTGGGGTCCAAAGTCTTTGTTCCTAGCCAC | 4.57
TTGTCAAAGATAGTTGTAGTTACAGCTCAT | -0.973
GAATCTGTTCCACCTGATCAAGCAACTGGC | -1.2
ATGGAGAAGATAAGCAGATCTTTAGAGACA | -1.2
CCAGGGGAGGTTATCTTGGGGCTAATGTCT | 1.23
CCATTTGCTGCTCTAGATGAGGGGGAAAGG | -1.12
ATCTCCAGATAAGACTTTGGACTTTGGACC | 11.8
TCACATTGGAGGAGGGGGCGGTTAAACATT | 0.332
GGCCTGGACTCCAAGCCCCAAAAACTTGGA | -0.426
GGAGCTGGTGGAGCAAAAAGGCCGTTCAAA | -1.41
TGGCTTCTGACCTTTGGCATTGTGTTACGT | 5.41

Sequence | binding signal (log2 normalized intensity)
CTTCTTCTGGAGCCTCAGTAAGTTTACTTC | 0.562
TAACAGCGGCATTCCTGTCAAAATCTGATC | -0.413
AGATAAAAAGCTTTTCTTCCCCCCTCCCTC | 5.54
GCTTCTGTTCGCAGACCTGCCAAAGTGTAC | 1.46
GTGTGCACAAGTCCTCACAATAATGAGAAA | -1.33
GCTATGCCTTAGCAAACAGACTGGTGGCAT | -1.29
GTGTGTATGAGAGAGAGAGAGAGGTGGGCA | -0.365
TCCCAGTTGTCTGATGGCTGCTTCACACAA | -1.39
TCATTCATATCACCTAGGTGGAATCTTATA | 0.948
CCCGCAGTGAGGGACAAGGCTGTCCCCCAT | 1.75
GCAAATCTCTTGGTCATGGAGGGAACAAAA | -0.207
AAAGGGGAAAAGGTCAAATACCAAAATGTG | 2.38
GCCCCCCGCCCAGTGAAAACAGCCCTAACC | 4.32
CACCCCCATGCAAGTTCCCACAGAGCCCAC | 4.56
AGGGAATAAAGAACTCTAAGCAGCGAAGCT | -1.25
GCTGGCTATCAGTTGAGATTTATTCCCAGG | -1.33
CACAGCTGAATCCAAAGGTCAATGCCAGGA | 4.65
AGTACACACCTGCAACCTATTTCTTTTTGA | 0.0139
GTACCTCCTTTCAGAACGTGTTTCCAGGCA | 0.55
GAAATATCATTATCTTGATCAGAAAAGAAA | 0.28
ACCCACCTACATTGATATTCCATATCAGCT | -1.1
TAGAATGTGCTGGATGTTTCCTTTGAACTC | 3.35
CCGCCCAGTGAAAACAGCCCTAACCAGGGG | -1.42
